Test results as given in publication PMC1764712, “Recruitment and Activation of RSK2 by HIV-1 Tat” (PLoS ONE, 2007).
These are yes or no findings as the source states them, for the method shown. For some assays here: Binding seen in cells or lysates may run through a third protein. Some binding calls cover weakened binding; strength is not graded here.

By UniProt entry, the sequences of proteins in these tests, tags left out. Where a name states a change or a piece, a line headed by the entry shows the natural chain unless it says otherwise. Residues count along the entry.
UniProt P04608: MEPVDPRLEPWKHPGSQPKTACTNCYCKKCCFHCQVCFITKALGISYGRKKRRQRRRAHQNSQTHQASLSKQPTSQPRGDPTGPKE
Biotinylated synthetic Tat protein (amino acids 1–72): residues 1-72 of P04608
GST-Tat, only the N-terminal 35 amino acids of Tat: residues 1-35 of P04608
GST-Tat lacking amino acids 1–36: residues 37-86 of P04608
UniProt P51812: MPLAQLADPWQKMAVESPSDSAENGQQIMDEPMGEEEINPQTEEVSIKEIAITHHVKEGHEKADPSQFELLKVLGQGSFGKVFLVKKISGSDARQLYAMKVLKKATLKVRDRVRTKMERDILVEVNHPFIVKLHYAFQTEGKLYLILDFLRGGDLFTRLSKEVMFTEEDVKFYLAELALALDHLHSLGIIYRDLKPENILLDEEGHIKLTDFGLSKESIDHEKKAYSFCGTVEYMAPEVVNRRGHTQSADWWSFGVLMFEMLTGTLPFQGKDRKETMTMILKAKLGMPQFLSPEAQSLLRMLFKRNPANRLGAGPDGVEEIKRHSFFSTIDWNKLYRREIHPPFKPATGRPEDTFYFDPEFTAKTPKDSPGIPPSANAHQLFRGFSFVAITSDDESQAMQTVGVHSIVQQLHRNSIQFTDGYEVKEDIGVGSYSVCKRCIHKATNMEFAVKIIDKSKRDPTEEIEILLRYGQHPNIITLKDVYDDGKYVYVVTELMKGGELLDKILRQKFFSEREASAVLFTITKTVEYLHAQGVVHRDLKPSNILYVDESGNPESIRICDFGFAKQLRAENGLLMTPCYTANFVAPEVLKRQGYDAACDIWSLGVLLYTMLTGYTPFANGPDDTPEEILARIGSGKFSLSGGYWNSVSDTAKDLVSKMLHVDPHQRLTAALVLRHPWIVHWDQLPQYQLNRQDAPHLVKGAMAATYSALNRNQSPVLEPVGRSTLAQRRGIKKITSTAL

What was measured:
[1] = target: GST-Tat lacking amino acids 1–36 (HIV-1) (UniProt P04608); assay: pull-down; GST proteins immobilised on glutathione-sepharose, incubated with 200 ng human recombinant RSK2; binding buffer 20 mM Hepes pH 7.9, 1% Triton, 0.5% NP-40, 200 mM KCl; washes with 1 M KCl; western blot with α-RSK2; both purified
[2] = target: GST-Tat, only the N-terminal 35 amino acids of Tat (HIV-1) (UniProt P04608); assay: as above
[3] = target: Biotinylated synthetic Tat protein (amino acids 1–72) (HIV-1) (UniProt P04608); assay: pull-down; biotinylated synthetic Tat immobilised on streptavidin-sepharose, incubated with 0.5 or 1.5 µl reticulocyte lysate with [35S]-RSK2 proteins, 10 min at 30°C, HB buffer with 120 mM NaCl; washes with 1 M KCl; autoradiography; only the target purified
[4] = target: Endogenous RSK2 of Jurkat T cells (human (endogenous in Jurkat)) (UniProt P51812); assay: co-IP; cellular extracts of Jurkat T cells infected with a lentiviral vector expressing Tat/FLAG from the HIV LTR, and of uninfected Jurkat cells; sepharose beads alone as control

Substance: Full-length human recombinant RSK2 isolated from insect cells (from UniProt P51812 1-740) (enzyme)
- binding [1]: binds
- binding [2]: no binding

Substance: In vitro synthesized radioactive RSK2 1–360 (from UniProt P51812 1-360) (domain or fragment)
- binding [3]: binds

Substance: In vitro synthesized radioactive full-length RSK2 (from UniProt P51812 1-740) (enzyme)
- binding [3]: binds

Substance: Tat/FLAG expressed from the HIV LTR of an HIV-based lentiviral vector (from UniProt P04608 1-86)
- binding [4]: binds
